The target of assay [1] is T1, recombinant 302–359 fragment of human mesothelin (hMSLN) (Homo sapiens, UniProt Q13421, biotin on the AviTag).
T1 construct: Amine-coupled to a CM5 chip in SPR, captured on NeutrAvidin in ELISA; source: E. coli Origami B with pBirA, purified (Ni-NTA, Superdex 75); not shown: AviTag, C-terminal, kept
Nature of the assay: SPR; Biacore T200; hMSLN 302–359 amine-coupled at about 700 RU on CM5; analytes 12.5 to 200 nM in HBS-EP, single cycle kinetics, 30 μL/min; bivalent model; apparent. The note with it: both partners purified. For orientation: Surface plasmon resonance follows binding to a sensor surface in real time, without labels.

Assay [2] deals with T2, human mesothelin on the surface of Meso34-MSLN cells (human, UniProt Q13421).
T2 construct: human mesothelin expressed from a lentivirus on Meso34 cells; also called cellular hMSLN; Meso34-hMSLN; source: Meso34 pleural mesothelioma cells transduced with an hMSLN-encoding lentivirus, on cells
Kind of assay: flow cytometry on cells; Meso34 and Meso34-MSLN cells stained with a concentration range of N13 monomer (streptavidin-PE), N13 dimer (anti-6X His Tag-PE) or MORAb-009 (anti-human IgG Fc), 30 min at 4°C; EC50 by one binding site regression. The note with it: one partner purified. A general note: Flow cytometry measures light scatter and fluorescence of single cells or particles in a stream.

B1: MORAb-009 (amatuximab) anti-mesothelin monoclonal antibody (antibody, V domains shown)
VH: not shown
VL: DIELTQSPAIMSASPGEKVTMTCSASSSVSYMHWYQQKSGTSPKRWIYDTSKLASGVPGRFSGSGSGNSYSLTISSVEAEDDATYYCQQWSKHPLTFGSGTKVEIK
notes: Bivalent antibody, detected with an anti-human IgG Fc antibody; the PDB entry would give the variable parts only; also called MORAb antibody; source: bought: Proteogenix (PX-TA1049)
As for B1, the binding result in assay [1] and in assay [2] was “binds” in each case.

Source of the values: paper PMC12752793, “Development of potent Affitin-based bispecific NK cell engagers for the therapy of MSLN-expressing cancers” (Molecular Therapy Oncology, 2025).
